For 84 molecules, activation results are on record in PubChem BioAssay AID1346428 (National Center for Advancing Translational Sciences (NCATS), 2018).

Among all 48,000 compounds or so, about 1,200 (2.5%) were called active. Another 2% or so got no clear call; they are omitted.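 Rule for the calls: active = activation of at least 60% and not above a set upper limit (about 1 call in 100 departs from these limits); inconclusive = activation of 40% to 60%, or above that upper limit; inactive = activation under 40%.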 This is one part of the list.

Sequence of UniProt O75388 (O75388 whole entry, looked up): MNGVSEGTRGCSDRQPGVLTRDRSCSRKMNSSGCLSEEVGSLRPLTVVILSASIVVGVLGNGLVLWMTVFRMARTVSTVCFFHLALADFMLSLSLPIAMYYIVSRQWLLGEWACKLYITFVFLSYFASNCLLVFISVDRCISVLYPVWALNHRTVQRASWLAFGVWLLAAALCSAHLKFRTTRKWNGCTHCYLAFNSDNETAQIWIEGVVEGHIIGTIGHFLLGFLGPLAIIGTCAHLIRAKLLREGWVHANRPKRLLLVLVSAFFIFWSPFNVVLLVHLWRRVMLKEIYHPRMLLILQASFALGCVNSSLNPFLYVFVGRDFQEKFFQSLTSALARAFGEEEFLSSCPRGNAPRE

In this test the target is Probable G-protein coupled receptor 32 (Homo sapiens) (UniProt O75388). The test is described as follows: qHTS for Agonists of Human Resolvin D1 Receptor DRV1. Note: 0% is about no effect. The following applies: CHO-K1 GPR32 beta-arrestin PathHunter luminescence, 90 min; at 76.9 µM; hits give high values; zero percent set by DMSO-only wells. The essentials:
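Engineered CHO-K1 line co-expressing GPR32-ProLink and EA-beta-arrestin. Compound treatment lasted 90 min at 37 °C. Luminescence was recorded after 1 h with substrate at ambient temperature, relative to DMSO basal wells.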
A general note: In qHTS, concentration-response curves come from the screen itself.
In the case of `COc1cccc(NC(=O)Cn2c(=O)n(Cc3ccccc3)c(=O)c3c4c(sc32)CN(C(C)=O)CC4)c1`, the activation is inactive: -13.4%.

Turning to `COc1ccc(-c2cc(C(F)(F)F)nc(SCC(=O)NCc3ccc(F)cc3)n2)cc1`, the activation is inactive: -3.77%.

On to `COc1ccc(-n2cc3c(c2-c2cccc(Br)c2)c(=O)n(C)c(=O)n3C)cc1OC`, for which the activation was inactive: -8.77%.

Consider `CCCCc1ccc(NC(=O)Cn2cnc3c2c(=O)n(C)c(=O)n3C)cc1`, for which the activation is inactive: -12.9%.

Turning to `COC(=O)c1ccccc1NC(=O)c1nc(SCc2ccccc2C)ncc1Cl`, the activation was inactive: 4.15%.

As to `Cc1cc(C)cc(C(=O)Nc2ccc(-c3cn4cccnc4n3)cc2)c1`, the activation was active: 103%.

`Cc1cc(=O)[nH]c2nnc(SCc3cccc(F)c3)n12`: the activation was inactive: 15%.

On to `CCOC(=O)NNc1nncc2ccccc12`, for which the activation was inactive: 2.88%.

In the case of `Cc1ccc(Cn2cc(CCC(=O)NC3CCCCC3)c3ccccc32)cc1`, the activation is inactive: -18.7%.

For the molecule `O=c1c2oc3ccccc3c2n(Cc2ccccc2F)c(=O)n1Cc1ccco1`, the activation is inactive: -6.63%.

Take `Cc1ccccc1NC(=O)Nc1nnc(N(C)Cc2ccccc2)s1`: the activation was inactive: -12.6%.

For the molecule `Cc1cccc(N2CCN(C(=O)Nc3ccc(F)cc3)CC2C)c1` (centres undefined), the activation was active: 63.3%.

`Cc1c(Cl)cccc1N1CC(c2nc3ccccc3n2Cc2ccccc2F)CC1=O` (centres undefined): the activation was inactive: 39.1%.

In the case of `Oc1ccccc1-c1nc(/C=C/c2ccc(F)cc2)no1`, the activation was inactive: 10.4%.

Regarding `COc1ccccc1NC(=O)CN1C(=O)C(c2ccc(F)cc2)=NC1(C)C`, the activation was inactive: -16%.

Turning to `COc1ccc(S(=O)(=O)NC2(C(F)(F)F)NC(=O)N(CCc3ccccc3)C2=O)cc1` (centres undefined), the activation is inactive: 7.71%.

For `CCCCCSc1nnc2c(n1)OC(c1ccc(C)s1)N(C(C)=O)c1ccccc1-2` (centres undefined), the activation was inactive: -35.3%.

`CCS(=O)(=O)c1c(Nc2ccc(F)c(Cl)c2)sc(C(=O)c2ccccc2)c1N`: the activation was inactive: -35.6%.

Take `Cc1cccc(NC(=O)Cn2c(=O)n(Cc3ccc4c(c3)OCO4)c(=O)c3ccccc32)c1`: the activation was inactive: -12.8%.

For `Cc1ccc(N2CCN(C(=O)c3nn(C)c4c3CS(=O)(=O)c3ccccc3-4)CC2C)cc1` (centres undefined), the activation was inactive: 13.9%.

For `CCOc1ccc(-c2ccc(NS(=O)(=O)c3cc(C)ccc3OC)cc2)nn1`, the activation is inactive: -13.7%.

For the molecule `CCOc1ccc(-n2c(=O)c3c4c(sc3n(Cc3cccc(Cl)c3)c2=O)CCCC4)cc1`, the activation was inactive: -0.0672%.

Consider `Cc1ccc(NC(=O)Cn2c(=O)n(-c3ccc(CC(=O)NCC4CCCO4)cc3)c(=O)c3ccccc32)cc1` (centres undefined), for which the activation was inactive: 5.05%.

On to `CC1=C(c2ccc(C)c(C)c2)S(=O)(=O)N=C1N1CCN(c2cccc(C(F)(F)F)c2)CC1`, for which the activation was inactive: -5.2%.

In the case of `CCCCN1CC(c2nc3ccccc3n2CCCCOc2c(C)cccc2C)CC1=O` (centres undefined), the activation is active: 71.6%.

Consider `O=C(NCC(c1ccc2c(c1)OCO2)N1CCOCC1)c1ccc(F)cc1` (centres undefined), for which the activation is inactive: -17.1%.

As to `Cc1ccc(/C=C(\C#N)c2nc(-c3cc4c(ccc5ccccc54)oc3=O)cs2)cc1`, the activation was inactive: 1.17%.

`CCCC(=O)N(c1ccc2oc(-c3ccccc3)c(C(=O)OCC)c2c1)S(=O)(=O)c1ccc(C)cc1`: the activation was inactive: -32%.

Turning to `COCCCNC(=O)Cn1c(=O)n(CCCC(=O)NCc2ccc(C)cc2)c(=O)c2ccccc21`, the activation is inactive: 14.2%.

Consider `CCOc1ccc(Sc2cc(C(=O)NCCc3ccc(OC)c(OC)c3)c3ccccc3n2)cc1`, for which the activation is inactive: -7.79%.

On to `Cc1cccc(C(=O)Nc2ccccc2-c2nc(-c3ccccc3)no2)c1`, for which the activation is inactive: -4.27%.

Consider `CC(=O)c1c(C)oc2ccc(N(C(=O)Oc3ccccc3)S(=O)(=O)c3ccc(Br)cc3)cc12`, for which the activation was inactive: -14.1%.

Consider `CC(C)CN(c1ccccc1)S(=O)(=O)c1nnc(NC(=O)c2ccco2)s1`, for which the activation is inactive: -3.16%.

Take `CCn1cc(C(=O)N2CCN(c3ccccc3OC)CC2)c(=O)c2cc(S(=O)(=O)N3CCCCC3)ccc21`: the activation was inactive: -0.535%.

As to `COc1ccc(-c2nn(-c3ccccc3)cc2C(=O)Nc2ccccc2OC)cc1`, the activation was inactive: -4.32%.

Take `COc1cc(OC)c(NC(=O)c2oc3ccc4c(c3c2C)C(=O)CC(C)(C)O4)cc1Cl`: the activation was inactive: -9.02%.

Consider `CCOc1ccccc1NC(=O)Cn1c(=O)n(Cc2ccc(C(=O)NCCCOC)cc2)c(=O)c2ccccc21`, for which the activation is inactive: 1.42%.

For the molecule `Cn1cc(C(=O)NCc2ccc(F)cc2)c(=O)c2cc(S(=O)(=O)N3CCCCC3)ccc21`, the activation is inactive: -0.544%.

In the case of `O=C(CCSCc1ccccc1F)N1CCN(c2ccc(F)cc2)CC1`, the activation was inactive: -26.3%.

For the molecule `COc1ccc(NC(=O)N2CCc3c(sc4c3CCCC4)C2c2ccc(F)cc2)cc1` (centres undefined), the activation was inactive: -6.63%.

For `CC(C)c1ccc(Nc2nc3ccc(C(=O)c4ccccc4)cc3n3cnnc23)cc1`, the activation was inactive: -18.9%.

As for `CCn1c(=O)c2cc(C(=O)N(C)c3cc(C)ccc3C)sc2c2ccccc21`, the activation is inactive: 10.5%.

On to `O=C(O)c1cccc(NC(=O)c2cccc(S(=O)(=O)Nc3cccc(C(=O)O)c3)c2)c1`, for which the activation was inactive: -20.5%.

On to `CCc1ccc(CNC(=O)c2cc3c(=O)oc4ccc(C)cc4c3s2)cc1`, for which the activation was inactive: 0.631%.

For `Cc1ccc(NC(=O)Nc2nnc(N3CCCCC3)s2)c(C)c1`, the activation was inactive: 7.81%.

As to `CCN(C(=O)c1sc2nc3n(c(=O)c2c1C)CCCCC3)c1ccccc1F`, the activation was inactive: -5.33%.

For the molecule `COc1cc(OC)cc(-n2c(=O)[nH]c3cc(C(=O)NCCc4ccc(C)cc4)ccc3c2=O)c1`, the activation is inactive: 42.6%.

Regarding `CN(C)C(=O)c1ccc(S(=O)(=O)NCc2ccccc2Cl)s1`, the activation was inactive: -1.75%.

With `COc1ccc(NC(=O)c2ccc3snnc3c2)cc1OC`, the activation was inactive: 0.345%.

Regarding `O=C(COC(=O)c1cc(-c2cccs2)nc2ccccc12)c1ccc(Cl)cc1`, the activation was inactive: -6.07%.

In the case of `COc1cc(C(=O)NCCSc2c(C)[nH]c3ccccc23)cc(OC)c1OC`, the activation is inactive: -3.16%.

`CCOc1ccc(NC(=O)CSc2nc3ccccc3c(=O)n2CCC(=O)NC2CCCCC2)cc1`: the activation was inactive: 26%.

For the molecule `COc1ccc(NC(=O)CN(C)S(=O)(=O)c2cnc[nH]2)cc1`, the activation is inactive: 2.33%.

For `CCOc1ccc(Nc2oc(/C=C/c3cc(OC)c(OC)c(OC)c3)nc2C#N)cc1`, the activation is inactive: 4.56%.

Turning to `O=C(NC1CC(=O)N(c2ccc(Cl)cc2)C1)C1CCCCC1` (centres undefined), the activation was inactive: -11.3%.

On to `COc1cccc(NS(=O)(=O)c2cc(-c3cnc(C4CC4)o3)ccc2C)c1`, for which the activation was inactive: -18.2%.

For `COc1ccc(-c2noc(C3CC(=O)N(c4ccc5c(c4)OCCO5)C3)n2)c(OC)c1` (centres undefined), the activation was inactive: -5.1%.

Consider `COC(=O)c1c(NC(=O)/C(C#N)=C/c2ccc(OC)cc2)sc2c1C(C(=O)OC)CC2` (centres undefined), for which the activation was inactive: -3.78%.

Regarding `CCc1ccccc1NC(=O)[C@H](Cc1ccccc1)N1Cc2ccccc2C1=O`, the activation is inactive: -4.86%.

As for `O=C(O)CSc1nc2ccccc2nc1N1CCCCC1`, the activation is inactive: 27%.

For `COc1ccc(CCNC(=O)CSc2cn(CCNC(=O)c3ccc(OC)c(OC)c3)c3ccccc23)cc1OC`, the activation is inactive: 7.1%.

`Cc1cccc(C)c1NC(=O)CSc1nccn1C`: the activation is inactive: -8.81%.

As for `Cc1ccc(C)c(CN2C(=O)c3ccccc3S(=O)(=O)c3ccc(C(=O)N4CCN(Cc5ccccc5)CC4)cc32)c1`, the activation is inactive: -19.8%.

Take `CCOc1ccc(CNC(=O)c2cccc(Nc3nc4ccccc4n4nnnc34)c2)cc1OC`: the activation is inactive: -8.12%.

`CC(C)Cn1c(SCc2cccc(F)c2)nc2ccsc2c1=O`: the activation is inactive: -20.3%.

For the molecule `CCOc1ccc(NC(=O)c2oc3ccccc3c2NC(=O)C(C)Oc2ccccc2)cc1` (centres undefined), the activation was inactive: -2.17%.

Regarding `Cc1ccc2c(=O)cc(C(=O)Nc3ccc(S(=O)(=O)N4CCCC(C)C4)cc3)oc2c1C` (centres undefined), the activation was inactive: 22.1%.

As for `CC(=O)c1cc2c(cc1N/C(=N/S(=O)(=O)c1ccc(C)cc1)c1ccc(Cl)cc1)OCO2`, the activation is inactive: -18.7%.

Regarding `O=C(CCn1c(=O)c2cccn2c2cccnc21)NCc1cccc(Br)c1`, the activation is inactive: -8.31%.

As for `COc1ccc(Cc2nc3ccc(C(=O)NCCc4ccc(Cl)cc4)cc3o2)cc1`, the activation was inactive: 40.8%.

Regarding `CCN(C(=O)CCS(=O)(=O)c1cc(Br)cc2c1N(C(=O)C1CC1)CC2)c1cccc(C)c1`, the activation is inactive: -8.03%.

`CC1Cc2cc(S(=O)(=O)CCC(=O)Nc3ccc(OC(F)(F)F)cc3)ccc2N1C(=O)C1CC1` (centres undefined): the activation is inactive: 11.7%.

Consider `COc1ccc(-c2cn3c(n2)sc2cc(C(=O)NCc4ccccc4)ccc23)cc1`, for which the activation was inactive: -4.51%.

For the molecule `COc1ccc(OC)c(C2CC(=O)Nc3ccc4ccccc4c32)c1` (centres undefined), the activation is inactive: 26.3%.

In the case of `CCOc1ccccc1N1CC(c2nc3ccccc3n2CCCCOc2ccccc2)CC1=O` (centres undefined), the activation was inactive: 3.82%.

On to `CC(NC(=O)c1c(O)nc2ccccn2c1=O)c1ccccc1` (centres undefined), for which the activation was inactive: -22.6%.

Take `S=c1[nH]c2ccccc2s1`: the activation was inactive: -110%.

Take `COc1ccccc1C1=Nn2c(nc3sc(C(=O)Nc4ccccc4Cl)c(C)c3c2=O)SC1`: the activation was inactive: -9.97%.

Consider `Cc1ccc(C)c(C(=O)N2CCC(c3nc4c(nnn4Cc4ccccc4)c(=O)[nH]3)CC2)c1`, for which the activation is inactive: -0.122%.

Regarding `CCOCCCn1c(SCC(=O)Nc2ccccc2OC)nc2c(oc3ccccc32)c1=O`, the activation is inactive: -2.99%.

For the molecule `COc1ccc(C2c3cc(OC)c(OC)cc3CC(=O)N2c2cccc(C#N)c2)cc1` (centres undefined), the activation was inactive: -14.2%.

`O=C(CC1N=C2c3ccccc3N=C(SCc3ccccc3Cl)N2C1=O)NC1CCCCC1` (centres undefined): the activation was inactive: -20.3%.

For `COc1ccc(Cl)cc1-n1c(CCC(=O)O)ccc1-c1ccc(C)cc1`, the activation was inactive: -3.31%.

As for `Cc1cc(=O)[nH]c(SCC(=O)N2CCN(c3ccccc3)CC2)n1`, the activation was inactive: -7.31%.
